Laboratory results taken from publication PMC4336329 (PLoS ONE, 2015).
Out of some 310,000 compounds screened, about 14,000 (4.5%) showed an effect of 50% or more. Effects have a minus sign here. The list shows a part of the results.

These compounds were tested against human ether-à-go-go-related gene (hERG) potassium channel (human, UniProt Q12809) (assay: primary screen, population patch clamp on CHO cells stably expressing hERG).
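Further: peak tail current of the secondary pulse compared with the same well before compound.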

Sequence of human ether-à-go-go-related gene (hERG) potassium channel (Q12809 whole entry, looked up): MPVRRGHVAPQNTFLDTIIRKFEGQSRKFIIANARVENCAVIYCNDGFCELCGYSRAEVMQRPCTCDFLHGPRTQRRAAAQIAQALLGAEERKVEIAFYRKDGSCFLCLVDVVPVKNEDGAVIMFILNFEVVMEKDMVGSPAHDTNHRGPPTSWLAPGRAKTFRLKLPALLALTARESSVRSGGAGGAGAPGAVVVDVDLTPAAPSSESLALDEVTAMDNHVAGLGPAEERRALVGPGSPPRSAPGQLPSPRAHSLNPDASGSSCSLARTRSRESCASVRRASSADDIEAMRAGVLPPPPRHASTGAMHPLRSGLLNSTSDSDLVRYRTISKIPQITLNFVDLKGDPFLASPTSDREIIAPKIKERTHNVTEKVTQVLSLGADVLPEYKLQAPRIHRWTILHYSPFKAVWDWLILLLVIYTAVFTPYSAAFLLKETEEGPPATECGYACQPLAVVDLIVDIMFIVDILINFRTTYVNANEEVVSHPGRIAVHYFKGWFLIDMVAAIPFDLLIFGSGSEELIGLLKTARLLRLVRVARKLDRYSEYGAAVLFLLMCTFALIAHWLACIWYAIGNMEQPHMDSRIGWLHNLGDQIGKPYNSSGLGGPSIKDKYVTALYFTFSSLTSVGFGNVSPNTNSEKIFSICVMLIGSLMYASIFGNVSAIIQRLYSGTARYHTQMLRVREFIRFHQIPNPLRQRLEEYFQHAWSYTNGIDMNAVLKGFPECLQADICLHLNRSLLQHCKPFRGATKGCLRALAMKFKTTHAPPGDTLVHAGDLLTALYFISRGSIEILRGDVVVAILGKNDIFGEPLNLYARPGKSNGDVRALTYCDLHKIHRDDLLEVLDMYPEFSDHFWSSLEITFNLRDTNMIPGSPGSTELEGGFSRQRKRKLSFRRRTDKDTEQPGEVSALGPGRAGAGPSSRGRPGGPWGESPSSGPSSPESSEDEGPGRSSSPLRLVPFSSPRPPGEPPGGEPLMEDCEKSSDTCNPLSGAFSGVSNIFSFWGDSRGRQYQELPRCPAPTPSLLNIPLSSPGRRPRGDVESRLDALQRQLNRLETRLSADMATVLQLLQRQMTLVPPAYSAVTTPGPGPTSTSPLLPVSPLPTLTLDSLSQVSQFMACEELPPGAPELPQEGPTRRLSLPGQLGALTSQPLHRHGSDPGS

| SMILES | hERG current change (%, negative = inhibition) at 10uM [%] |
| --- | --- |
| COc1ccc(CN2CNc3nc4ccccc4n3C2)cc1 | 1.16 |
| CCN(CC)c1ccc(/C=N/Nc2nc(C)cc(=O)[nH]2)cc1 | -20.5 |
| CNS(=O)(=O)c1cc(NC(=O)c2cccc3cccnc23)ccc1C | 10.2 |
| CCN(Cc1cc(=O)oc2cc(C)ccc12)c1ccccc1 | 16.7 |
| O=C(NCCCn1ccnc1)C(=O)NCC1OCCCN1S(=O)(=O)c1ccc(Cl)cc1 (centres unmarked) | -0.0397 |
| COc1ccc(C(=O)Cn2c(Cl)nc3c2c(=O)n(C)c(=O)n3C)cc1 | -2.11 |
| O=C(O)C(=O)O.O=C1CCCN1CCCNCC(=O)N1c2ccccc2Sc2ccccc21 | 2.92 |
| O=S(=O)(c1ccccc1)c1nc(-c2ccccc2)oc1NCc1cccnc1 | 8.28 |
| CN1C(=O)CSc2ccc(NC(=O)NCc3ccco3)cc21 | 0.319 |
| CN(c1ccc(F)cc1)S(=O)(=O)c1ccc2[nH]cc(C(=O)O)c(=O)c2c1 | 13.8 |
| Cc1cccc(-n2cccc2)c1C#N | 2.74 |
| CCO[C@@H]1OC(C(=O)O)=C[C@H](c2ccc(C(F)(F)F)cc2)[C@H]1CCCO | 13.7 |
| COc1ccc(-c2ccc(SCC(=O)Nc3nnc(C)s3)nn2)cc1 | 43.5 |
| COCCCn1c(SC(C)C(=O)NC2CC2)nc2ccccc2c1=O (centres unmarked) | -29.1 |
| Cc1ccccc1-c1nc2ccccc2c(=O)n1C | 10.4 |
| O=C(Cc1ccc(Cl)cc1)OCC(=O)c1ccc[nH]1 | -17.2 |
| O=C(Oc1cccc(NC(=O)c2ccccc2Cl)c1)c1ccc([N+](=O)[O-])cc1 | -16.9 |
| Cc1sc2nc(CSC(C)C(=O)Nc3cc(S(C)(=O)=O)ccc3Cl)[nH]c(=O)c2c1C (centres unmarked) | 12.6 |
| NC(=O)C(c1cccc(Cl)c1)c1ncc(C(F)(F)F)cc1Cl (centres unmarked) | 6.65 |
| COc1cccc2cc(C(=O)NNC(=O)c3ccc(Br)cc3)c(=O)oc12 | 11.7 |
| CC1(C)CCC[C@]2(C)[C@H]3CC(=O)O[C@]3(C)CC[C@@H]12 | 4.64 |
| O=C(CN1C(=O)c2ccccc2S1(=O)=O)NCc1ccccc1 | 8.98 |

| SMILES | hERG current change (%, negative = inhibition) at 10uM [%] |
| --- | --- |
| Nc1ncn([C@H]2C[C@H](O)[C@@H](CO)O2)c(=O)n1 | 24.4 |
| CCOCC(=O)N1CCc2ccccc21 | 4 |
| O=C(Nc1cccc(C(F)(F)F)c1)Nc1ccon1 | 10.9 |
| COc1ccc(-c2csc3ncnc(N4CCN(c5ccc(OC)cc5)CC4)c23)cc1 | -11.2 |
| Cc1ccccc1OC(=O)c1cccc(S(=O)(=O)N2CCN(C)CC2)c1 | -30.1 |
| O=C(c1cc(-c2ccccc2)on1)N1CCC2(CC1)OCCO2 | 1.93 |
| COc1ccc2c(c1)OC[C@H]1[C@H]2N2C(=O)c3cc(OC)ccc3NC(=O)[C@@]2(C)[C@H]1c1ccccc1 | 1.82 |
| O=[N+]([O-])c1ccc(C[n+]2cccc3ccc4cccnc4c32)cc1.[Br-] | -62.6 |
| COc1cc2c(cc1NC(=O)CN(C)Cc1ccc(OC)c(OC)c1)oc1ccccc12 | 14.3 |
| O=C(c1cc(F)ccc1F)C1CCCN(Cc2cc(Cl)ccc2O)C1 (centres unmarked) | 0.916 |
| O=C(O)c1cccc(CSc2nc(-c3ccccc3)cc(C(F)(F)F)n2)c1 | 0.347 |
| Cc1ccc(C)c(NC(=O)CCC(=O)N2CCOc3ccccc32)c1 | -8.87 |
| CCSCC1COC(c2cccn2Cc2ccc(C)cc2)=N1 (centres unmarked) | -3.14 |
| Cc1c(NC(=O)c2ccc(S(=O)(=O)N(C)C)cc2)cccc1-n1cnnn1 | 8.65 |
| CC(=O)Nc1ccc(S(=O)(=O)NCCC(=O)OCc2ccccc2F)cc1 | -8.68 |
| CCOC(=O)c1sc2ccc(S(=O)(=O)N3CCOCC3)cc2c1N | 1.25 |
| Cc1c(C(=O)N2CCN(c3ncccn3)CC2)oc2ccc(Cl)cc12 | -23.3 |
| Cc1ccc(S(=O)(=O)Cn2nnnc2CN(Cc2ccco2)CC2CCCO2)cc1 (centres unmarked) | -8.15 |
| CN1C(=O)N(c2cccc3ccccc23)C(n2cncn2)C1(C)C (centres unmarked) | 14.1 |
| CC(C)c1nnc(NC(=O)C2CCN(c3nc4ccccc4s3)CC2)s1 | 9.04 |
| COC(=O)c1ccc(CN2C(=O)NC3(CCC(C)CC3)C2=O)cc1 (centres unmarked) | 25.6 |
| Cc1cccc(NC(=S)N2CCC(NC(=O)c3cccc(F)c3)CC2)c1 | -11.8 |

| SMILES | hERG current change (%, negative = inhibition) at 10uM [%] |
| --- | --- |
| COc1ccc(Cl)cc1N(C(=O)c1ccco1)C(C(=O)NC1CCCC1)c1ccncc1 (centres unmarked) | -4.73 |
| O=C(NCc1cccs1)c1nc2c(nnn2Cc2ccccc2Cl)c(=O)[nH]1 | 5.42 |
| CCOCCCNC(=O)C1(O)c2cc(Br)ccc2NC(=O)N1c1ccc(C)c(C)c1 (centres unmarked) | 3.18 |
| O=C(O)c1cccnc1C(=O)c1ccccc1 | 3.79 |
| Cc1[nH]c2ccccc2c1CC#N | 16 |
| O=[N+]([O-])c1ccc(S(=O)(=O)Nc2ccccn2)cc1 | 15.2 |
| CC(C)(C)C1CCc2c(sc(NC(=O)c3cccs3)c2C(=O)N2CCCCC2)C1 (centres unmarked) | 7.32 |
| CC1(c2ccc3noc(-c4ccccc4)c3c2)OCCO1 | 4.9 |
| CCOc1ccc(NC(=O)CCCN2C(=O)C(c3ccccc3)Oc3cccnc32)cc1 (centres unmarked) | 17.5 |
| Oc1ccc2ccccc2c1C=Nc1ccc(N2CCOCC2)cc1 | 3.04 |
| Cc1ccc(S(=O)(=O)N(C)CCCC(=O)Nc2cc(C)ccc2C)cc1 | -29.9 |
| Cc1ccc(/C=N/NC(=O)C(NC(=O)c2ccccc2)c2n[nH]c(=O)c3ccccc23)cc1 (centres unmarked) | -2.54 |
| O=C(CCC(=O)c1ccc(F)cc1)OC1CCOC1=O (centres unmarked) | -8.34 |
| Cn1c(N)c(S(=O)(=O)N2CCN(c3ccccc3F)CC2)c(=O)n(C)c1=O | 8.63 |
| CC1(OC(=O)C2CCCC2)C(=O)C=C2C=C(c3ccsc3)N(Cc3ccccc3)C=C2C1=O (centres unmarked) | -52.5 |
| Cc1ccc(CNC(=O)c2cc3c(s2)CS(=O)(=O)C3)cc1 | 5.77 |
| C#CCN1C(=O)C2(OCCO2)c2ccccc21 | 21.1 |
| COc1ccc(CCNC(=O)c2ccc3c(c2)NC(=O)C(C(C)C)N3)cc1OC (centres unmarked) | 18.8 |
| CC(C)COc1nc2c(c(=O)n(C)c(=O)n2C)n1C | -7.61 |
| COc1cc(C(=O)NCCCOC(C)C)ccc1OC1CCN(C(C)=O)CC1 | 23 |
| CCOc1ccc(/C(O)=C2/C(=O)C(=O)N(c3ncccn3)C2c2ccc(C)cc2)cc1 (centres unmarked) | 6.78 |
| CCOC(=O)c1c(NC(=O)Cn2nc(C(=O)O)c3ccccc3c2=O)sc(C)c1C | 7.67 |

| SMILES | hERG current change (%, negative = inhibition) at 10uM [%] |
| --- | --- |
| CC(C)C(=O)Nc1ccc(NC(=O)c2cccc3c(Br)cccc23)cc1 | 19.2 |
| Cc1cc(C)c(S(N)(=O)=O)c(C)c1N(C)S(=O)(=O)c1ccc(Cl)cc1 | -41.8 |
| Cc1ccc(OCCn2cc(/C=C3\C(=O)NN(c4ccccc4)C3=O)c3ccccc32)cc1 | 11.7 |
| Cc1nc(C(F)(F)F)c(C(=O)N/N=C(\N)c2cccnc2)s1 | 32.5 |
| O=C(Nc1cccc(S(=O)(=O)N2CCOCC2)c1)c1ccc(N2CCOCC2)c([N+](=O)[O-])c1 | -18.1 |
| Cc1ccc(N(CC(=O)NCC2CCCO2)C(=O)CCC(=O)Nc2nccs2)cc1C (centres unmarked) | 21.7 |
| Cc1cccc(C(C)Nc2ccc([N+](=O)[O-])cn2)c1 (centres unmarked) | -68.9 |
| CCOc1ccc(C(=O)NC2CCN(C(=O)Nc3ccccc3OC)CC2)cc1 | 14.6 |
| CN1CCc2c(sc3c2C(=O)NC(c2ccco2)N3)C1 (centres unmarked) | -0.786 |
| O=S(=O)(c1c(F)cccc1F)N1CCN(Cc2c(O)ccc3ccccc23)CC1 | -1.29 |
| COc1cc(CN2CCCC(C(=O)c3sccc3C)C2)cc(OC)c1O (centres unmarked) | -47.8 |
| COC(=O)c1cc(=O)nc2sc(-c3ccc(F)cc3)nn12 | -1.86 |
| O=C(c1c[nH]c(C(=O)C(Cl)(Cl)Cl)c1)c1ccccc1F | 15.8 |
| Fc1ccc(-c2nnc(-n3nnc4ccccc43)c3ccccc23)cc1 | 2.8 |
| Cn1nc(C(F)(F)F)c(C(=O)Nc2ccc(F)cc2F)c1Sc1cccc(Cl)c1 | -4.65 |
| COc1ccc(CN2CCNC(=O)C2CC(=O)N(C)Cc2nccs2)c(OC)c1 (centres unmarked) | -5.95 |
| COCCNC(=O)C1CC2Cn3c(nc4cc(Cl)c(Cl)cc43)C2N1C (centres unmarked) | -26.5 |
| O=C(CCC(=O)N1CCCC1)Nc1nnc(C2CCCCC2)s1 | -3.22 |
| Cc1ccc(Cl)cc1N1CCN(C(=O)c2noc(C(C)C)c2[N+](=O)[O-])CC1 | 11.7 |
| COc1ccc(NC(=O)[C@@H](NC(=O)c2ccccc2)C(C)C)cc1S(=O)(=O)N1CCCCC1 | -5.89 |
